From PubChem BioAssay AID1645882 (National Center for Advancing Translational Sciences (NCATS), 2021)
The campaign covered roughly 16,000 compounds. About 120 (0.75%) were called active. About 4% were inconclusive and are not listed. Calls follow the shape of the dose curve; as a rule, active = well fitted inhibition curve with a large enough effect; inconclusive = small, poorly fitted or top-dose-only effect; inactive = no such curve, though single readings can be large or run the other way. Some of the results follow.
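Also: plate controls were DMSO for no effect and ATA control for full effect; nearly all actives have a fitted effect of over 75% in size.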

The compounds below were run against Rap guanine nucleotide exchange factor 3 (Homo sapiens) (UniProt O95398) (assay: Validation qHTS for antagonist of cAMP-regulated guanine nucleotide exchange factor 3 (EPAC1)). Details: EPAC1 Rap1B-BODIPY-GDP exchange, fluorescence; series mostly up to 150 µM; activity change, negative = inhibition: at the top concentration.
Sequence of UniProt O95398 (O95398 whole entry, looked up): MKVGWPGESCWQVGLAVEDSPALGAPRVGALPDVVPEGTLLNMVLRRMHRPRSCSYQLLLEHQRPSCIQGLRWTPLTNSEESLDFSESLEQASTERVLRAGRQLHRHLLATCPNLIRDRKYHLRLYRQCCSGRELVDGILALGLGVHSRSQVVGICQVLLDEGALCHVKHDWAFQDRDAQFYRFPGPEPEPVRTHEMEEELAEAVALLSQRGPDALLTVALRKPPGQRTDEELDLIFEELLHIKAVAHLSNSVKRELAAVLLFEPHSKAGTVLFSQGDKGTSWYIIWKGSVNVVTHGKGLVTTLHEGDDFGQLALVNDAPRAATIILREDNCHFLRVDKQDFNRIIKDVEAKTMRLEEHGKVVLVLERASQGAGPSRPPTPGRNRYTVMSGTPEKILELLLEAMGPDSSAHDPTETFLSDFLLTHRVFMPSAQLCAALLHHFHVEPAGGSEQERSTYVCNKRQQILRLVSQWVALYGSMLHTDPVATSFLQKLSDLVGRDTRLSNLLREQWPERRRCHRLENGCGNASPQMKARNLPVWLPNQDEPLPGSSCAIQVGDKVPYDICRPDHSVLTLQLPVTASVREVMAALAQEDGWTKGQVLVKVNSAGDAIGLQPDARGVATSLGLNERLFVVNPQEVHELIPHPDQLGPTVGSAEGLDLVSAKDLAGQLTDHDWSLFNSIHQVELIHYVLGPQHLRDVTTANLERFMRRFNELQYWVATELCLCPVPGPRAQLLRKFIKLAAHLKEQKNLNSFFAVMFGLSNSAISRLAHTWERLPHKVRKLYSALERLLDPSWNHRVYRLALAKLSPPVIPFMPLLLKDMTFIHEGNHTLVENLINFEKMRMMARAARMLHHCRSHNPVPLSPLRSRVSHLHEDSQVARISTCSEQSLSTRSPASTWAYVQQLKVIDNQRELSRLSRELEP
Outline: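 EPAC1 (100 nM) mixed with 250 nM RAP1B-BODIPY-GDP and 50 uM GDP; compounds in concentration series, 5 min at room temperature. Fluorescence (ex 480/em 540 nm) read every 5 min for 30 min; normalized to ATA control and DMSO.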
For CON, the “activity change, negative = inhibition” value was inactive: 18.4%.
For CCc1nc2cc(C(=O)N3CCC[C@H]3C(=O)OC)cc(NC(=O)c3ccccc3OC)c2n1C, the “activity change, negative = inhibition” value was inactive: 5.19%.
COCCn1c(=O)c(-c2ccc(F)cc2)nc2cnc(OC)nc21 was tested, and the “activity change, negative = inhibition” value was inactive: 20%.
With COc1ccc(-c2nc3cc(F)ccc3cc2CN(C(=O)c2cccc(OC)c2)C2CC2)cc1 the “activity change, negative = inhibition” value was inactive: 7.85%.
CN(C)c1ccc(C(=C2C=CC(=[N+](C)C)C=C2)c2ccc(N(C)C)cc2)cc1 was tested, and the activity change, negative = inhibition was “inactive”.
For O=C(NCCc1nnc2n1CCN(Cc1ccsc1)CC2)c1ccc(F)cc1, the “activity change, negative = inhibition” value was inactive: 0.369%.
With CC(=O)NCCNc1ncnc2ccc(-c3ccccc3C)cc12 the “activity change, negative = inhibition” value was inactive: 7.27%.
With CCC(=O)c1ccc2c(c1)N(CCCN1CCN(CCO)CC1)c1ccccc1S2 the “activity change, negative = inhibition” value was inactive: 2.49%.
With COc1ccc(CC2c3cc(OC)c(OC)cc3CC[N+]2(C)CCC(=O)OCCCCCOC(=O)CC[N+]2(C)CCc3cc(OC)c(OC)cc3C2Cc2ccc(OC)c(OC)c2)cc1OC (stereo not drawn) the activity change, negative = inhibition was “inactive”.
COc1ncc2ncc(=O)n(CCC#N)c2n1 was tested, and the “activity change, negative = inhibition” value was inactive: 10.7%.
For CC(=O)[C@H]1CC[C@H]2[C@@H]3CC=C4C[C@@H](O)CC[C@]4(C)[C@H]3CC[C@]12C, the “activity change, negative = inhibition” value was inactive: 1.08%.
With CCC1C(=O)NCCN1Cc1ccc2c(c1)CN(Cc1cccc(OC)c1OC)CCO2 (stereo not drawn) the “activity change, negative = inhibition” value was inactive: -1.28%.
CSc1nc(N)c2ncn([C@@H]3O[C@H](COP(=O)(O)OP(=O)(O)O)C(O)[C@H]3O)c2n1 (stereo partly drawn) was tested, and the “activity change, negative = inhibition” value was inactive: 1.58% [at 75.8 µM].
For O=C(OCC(COC(=O)c1cccnc1)(COC(=O)c1cccnc1)COC(=O)c1cccnc1)c1cccnc1, the “activity change, negative = inhibition” value was inactive: 25.4%.
For COc1cccc(CN2CCC(n3cc(C(=O)N4CCCCC4)nn3)CC2)c1OC, the “activity change, negative = inhibition” value was inactive: 6.54%.
In the case of O=S(=O)([O][Al])OC[C@H]1O[C@@](COS(=O)(=O)[O][Al])(O[C@H]2O[C@H](COS(=O)(=O)[O][Al])[C@@H](OS(=O)(=O)[O][Al])[C@H](OS(=O)(=O)[O][Al])[C@H]2OS(=O)(=O)[O][Al])[C@@H](OS(=O)(=O)[O][Al])[C@@H]1OS(=O)(=O)[O][Al], the “activity change, negative = inhibition” value is reported as inactive: 16.4%.
In the case of COc1ccc(-c2nc3cnc(N4CCNCC4)nc3n(Cc3ccc(F)cc3)c2=O)cc1, the “activity change, negative = inhibition” value is reported as inactive: 7.48%.
For COc1cccc(-c2ccc3ncnc(NCCc4c[nH]c5ccc(OC)cc45)c3c2)c1, the “activity change, negative = inhibition” value was inactive: -14.1%.
Oc1cc2c(cc1O)[C@@H]1c3ccc(O)c(O)c3OC[C@]1(O)C2 was tested, and the “activity change, negative = inhibition” value was inactive: -8.55%.
In the case of CC(C(=O)O)c1ccc2c(c1)CC(=O)c1ccccc1S2 (stereo not drawn), the “activity change, negative = inhibition” value is reported as inactive: 33.1%.
With O=C1CC(CC(=O)N2CC3CCCC2C3)(c2cccc(F)c2)C(=O)N1Cc1cccnc1 (stereo not drawn) the “activity change, negative = inhibition” value was inactive: -0.543%.
For COc1cccc(Nc2ncc3nc(C)c(=O)n(C4CC4)c3n2)c1, the “activity change, negative = inhibition” value was inactive: 7.2%.
Clc1ccc(N2CCN(Cc3c[nH]c4ncccc34)CC2)cc1 was tested, and the activity change, negative = inhibition was “inactive”.
For Cc1nc(-c2ccc(OCC(C)C)c(C#N)c2)sc1C(=O)O, the “activity change, negative = inhibition” value was inactive: 40.7%.
For O=c1ccn([C@@H]2O[C@H](COP(=O)(O)OP(=O)(O)OP(=O)(O)O)[C@@H](O)[C@H]2O)c(=O)[nH]1, the “activity change, negative = inhibition” value was inactive: 1.9%.
With O=C(c1cnccn1)N1CCC2(CC1)CCN(c1ccccc1)CC2 the “activity change, negative = inhibition” value was inactive: 17.5%.
For COc1ccc(C(=O)N2CCC3(CCCN(c4ncccn4)C3)CC2)cc1, the “activity change, negative = inhibition” value was inactive: 11%.
COc1ccc2cc([S+]([O-])Cc3ncc(C)c(OC)c3C)nc2c1 was tested, and the “activity change, negative = inhibition” value was inactive: -8.58% [at 75.8 µM].
For CCNc1ncc2nc(C)c(=O)n(-c3ccc(OC)cc3)c2n1, the “activity change, negative = inhibition” value was inactive: 18.4%.
C[C@@H](O)[C@H]1C(=O)N2C(C(=O)[O-])=C(SC3Cn4cnc[n+]4C3)[C@H](C)[C@H]12 (stereo partly drawn) was tested, and the “activity change, negative = inhibition” value was inactive: 29.7%.
For COCCNc1nc(-c2ccccc2C)nc2ccccc12, the “activity change, negative = inhibition” value was inactive: -9.25%.
With c1ncc(CC2CCNCC2)[nH]1 the activity change, negative = inhibition was “inactive”.
With Cn1ccc2cc3c(cc21)CCN3C(=O)Nc1cccnc1 the activity change, negative = inhibition was “inactive”.
Cc1oc(-c2ccccc2NC(=O)c2cccnc2)nc1CNC(=O)c1ccc(N(C)C)cc1 was tested, and the “activity change, negative = inhibition” value was inactive: 10.2%.
With Cc1cnc(CNc2ncnc3ccc(-c4ccc5c(c4)OCO5)cc23)cn1 the “activity change, negative = inhibition” value was inactive: 3.77%.
CC(C)CCCC(C)C1CCC2C3=CC[C@@H]4CC(O)CC[C@@]4(C)C3CC[C@]21C (stereo partly drawn) was tested, and the “activity change, negative = inhibition” value was inactive: -17.4%.
With Cc1occc1C(=O)Nc1cccc(-c2nc(CNC(=O)c3cccc(C#CC(C)(C)O)c3)c(C)o2)c1 the “activity change, negative = inhibition” value was inactive: 13.3%.
For C=CCc1cccc(C=NNC(=O)CN2CCN(Cc3ccccc3)CC2)c1O, the “activity change, negative = inhibition” value was inactive: -1.65% [at 75.8 µM].
CC(=O)Nc1ccc(S(=O)(=O)Nc2cc(C)on2)cc1 was tested, and the “activity change, negative = inhibition” value was inactive: 22.7%.
For CC(=O)NCCNc1cc(-c2ccccc2C)ncn1, the “activity change, negative = inhibition” value was inactive: -2.16%.
CC(C)C[C@@H](CC#N)N1CCN(CCc2ccccc2)CCC1=O was tested, and the “activity change, negative = inhibition” value was inactive: 8.75%.
Cc1ccc(CNc2ncnc3sc(C(=O)N4CCC[C@H]4C(N)=O)c(C)c23)o1 was tested, and the “activity change, negative = inhibition” value was inactive: 12.2%.
In the case of O=C(O)CP(=O)(O)O, the activity change, negative = inhibition is reported as “inactive”.
For CN(C)c1ncc2nc(-c3cc(F)cc(F)c3)c(=O)n(C[C@H]3CCCO3)c2n1, the “activity change, negative = inhibition” value was inactive: 2.17%.
CC1(C)CC(=O)C([C@H]2C3=C(CC(C)(C)CC3=O)Oc3ccccc32)C(=O)C1 was tested, and the “activity change, negative = inhibition” value was inactive: 8.35%.
O=C1CCN(Cc2ccccc2)CCN1CCO was tested, and the “activity change, negative = inhibition” value was inactive: 19.8%.
With CC(C1OC(C)(C)C(O)C1O)C1CC[C@@]2(C)C3=CCC4C(C)(C)C(=O)CC[C@]4(C)C3CC[C@@]12C (stereo partly drawn) the “activity change, negative = inhibition” value was inactive: -3.16%.
With COc1ccc(CN2CCC3(CCC(CNC(=O)c4ccnn4C)O3)CC2)c(C)c1C (stereo not drawn) the “activity change, negative = inhibition” value was inactive: 16.5%.
